Results reported in PubChem BioAssay AID686978 (National Center for Advancing Translational Sciences (NCATS), 2013).
The campaign covered roughly 420,000 compounds. About 64,000 (15%) were called active. The inconclusive results got no clear call from the source; some entries with a clear call stand among them for comparison. Calls come from the whole dose curve; as a rule, active = well fitted inhibition curve with a large enough effect; inconclusive = small, poorly fitted or top-dose-only effect; inactive = flat fitted curve, though single readings scatter. Potencies of inconclusive entries are left out as doubtful fits.

Test: qHTS for Inhibitors of human tyrosyl-DNA phosphodiesterase 1 (TDP1): qHTS in cells in absence of CPT; note: nearly all actives have a fitted effect of over 55% in size
Conditions: DT40 Tdp1-/- hTDP1 cells, no CPT, ATP luminescence, 48 h; activity change, negative = growth inhibition: at 46.2 µM (top of the series) unless noted
Summary of the method: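 Chicken DT40 Tdp1-/- cells stably complemented with human TDP1 were seeded at 400 cells/well with DMSO in place of 20 nM camptothecin. After compound pinning, cells grew at least 48 hr at 37 °C; viability read by CellTiter-Glo luminescence.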
% is set by controls: 0 for no effect and ±100 for the full control effect; potency is the fitted concentration of half-maximal effect; tags give direction and shape of the fitted curve.

Compound | Potency | activity change, negative = growth inhibition
COc1ccc(S(=O)(=O)N(CC(=O)N2CCCC2)Cc2ccccc2)cc1 | inconclusive [inhibitor, partial curve] | 
Cc1cccc(CN2CCN(C3CN(Cc4cn(Cc5cccc(Cl)c5)nn4)S(=O)(=O)C3)CC2)c1 (centres undefined) | active: 14.6 µM | 
CCOc1ccccc1NC(=O)CSc1nc(=O)n(Cc2ccccn2)c2c1CCC2 |  | inactive: -22.5%
Clc1ccc(C2=C3CCCCn4c(-c5ccccc5)c[n+](c43)C2)cc1 | inconclusive [inhibitor, single point] | 
Cc1ccc(NC(=O)CN(C)CC(=O)Nc2cccc(F)c2)cc1S(=O)(=O)N1CCCCCC1 | inconclusive [inhibitor, single point] | 
CCCCCN(C(=O)CCC(=O)OC(C)C(=O)c1ccc(Cl)cc1)c1c(N)n(CCCC)c(=O)[nH]c1=O (centres undefined) |  | inactive: -25.5%
COc1cccc2c3c(c(C)nc12)CCN3c1ccccc1 | active: 14.6 µM | 
c1cncc(-c2cncnc2-n2ccnc2)c1 |  | inactive: 13%
CCCc1cc(=O)n2nc(N3CCC(C(=O)N4CCN(c5cccc(OC)c5)CC4)CC3)sc2n1 | active: 5.8 µM | 
O/N=C(/CCc1ccccc1)C1(O)CCCCC1 | inconclusive [inhibitor, partial curve, poor fit] | 
O=C(CCC(=O)N(c1ccc(F)cc1)C(C(=O)NC1CCCC1)c1ccncc1)Nc1cccnc1 (centres undefined) |  | inactive: -14.3%
CCOc1ccc(NC(=O)c2csc3c2CCCC3)cc1 | inconclusive [inhibitor, single point] | 
O=S(=O)(NCc1ccccc1Cl)c1cccs1 |  | inactive: -2.67%
COc1cccc(/C=N/NC(=S)NCCc2ccccc2)c1 | inconclusive [inhibitor, single point] | 
COc1ccc(OCC(O)CN2C(=O)c3ccccc3S2(=O)=O)cc1 (centres undefined) | inconclusive [inhibitor, partial curve, poor fit] | 
CC(=O)c1cccc(NCC(=O)Nc2cc(S(=O)(=O)N3CCCCC3)ccc2C)c1 | inconclusive [inhibitor, single point] | 
COc1ccc(Cl)cc1S(=O)(=O)n1c([N+](=O)[O-])cnc1C |  | inactive: -12.1%
Cc1ccc2nsnc2c1NC(=O)c1ccc([N+](=O)[O-])o1 | active: 23.1 µM | 
Cc1ccc(C2(c3ccc(C)cc3)NC(=O)N(Cc3c(C)noc3C)C2=O)cc1 | inconclusive [inhibitor, single point] | 
O=C1CSC(=S)N1N=Cc1ccc(OCc2ccccc2)cc1 | inconclusive [inhibitor, single point] | 
CCC(C)(C)C(=O)Nc1ccc(OC)cc1[N+](=O)[O-] |  | inactive: -22.6%
COc1ccc(N2CCN(c3nc4c(C)cccn4c(=O)c3/C=C(\C#N)C(N)=O)CC2)cc1 | inconclusive [inhibitor, partial curve] | 
N=c1sccn1CC(=O)Nc1ccccc1Cc1ccccc1 | inconclusive [inhibitor, single point] | 
COc1ccccc1Oc1nc2c(C)cccn2c(=O)c1/C=C(\C#N)c1nc2ccccc2[nH]1 |  | inactive: -10.1%
COc1ccc(-n2nnnc2C(c2cccc(OC)c2OC)N2CCN(C/C=C/c3ccccc3)CC2)cc1 (centres undefined) | active: 18.4 µM | 

Compound | Potency | activity change, negative = growth inhibition
Clc1ccc(CN2CCCCCC2)cc1 |  | inactive: -3.44%
CC(O)CCC(=O)NCCNC(=O)CCC(C)O (centres undefined) | inconclusive [inhibitor, single point] | 
COc1ccc(N(C(=O)c2ccccc2C)S(=O)(=O)c2ccc(C)cc2)cc1 | inconclusive [inhibitor, single point] | 
O=C(COc1coc(CN2CCc3ccccc3C2)cc1=O)Nc1cccc([N+](=O)[O-])c1 |  | inactive: -24.8%
Fc1ccc(N2CCN(Cc3cnc(Cl)s3)CC2)cc1 |  | inactive: -28.9%
CCOC(=O)C1=C(CN2CCN(c3cc(C)ccc3C)CC2)NC(=O)NC1c1ccccc1 (centres undefined) | active: 18.4 µM | 
O=S(=O)(c1cc(Cl)ccc1Cl)N1CCCC1 |  | inactive: -21.1%
Nc1c(Cl)ncnc1NCc1ccccc1 | inconclusive [inhibitor, partial curve, poor fit] | 
O=C(CCC(=O)NNC(=O)COc1ccccc1)NCc1ccccc1 |  | inactive: -0.253%
O=C(Nc1ccc(-c2nc3ccccc3s2)cc1)C1=COCCO1 | inconclusive [inhibitor, single point] | 
CS(=O)(=O)c1ccc2nc(NC(=O)c3ccco3)sc2c1 | inconclusive [inhibitor, single point] | 
O=C(/C=C/c1ccc(C(F)(F)F)cc1)OC(C(=O)NC1CC1)c1ccccc1 (centres undefined) | inconclusive [inhibitor, single point] | 
COc1ccc(-n2cc(C(=O)NCc3ccc(Cl)cc3)c3ccccc3c2=O)cc1 | inconclusive [inhibitor, partial curve] | 
COc1ccccc1C(=O)c1nc2ccccc2n1C |  | inactive: 7.86%
Cc1cc2c(Nc3ccc(C(=O)O)cc3)ncnc2s1 |  | inactive: 17.1%
CC(C)(C)NCC(O)COc1ccc(NC(=O)NC2CCCCC2)cc1 (centres undefined) | inconclusive [inhibitor, single point] | 
COc1ccc(OCc2cc(C(=O)NC3CCc4ccccc43)no2)c(Cl)c1 (centres undefined) | inconclusive [inhibitor, single point] | 
COCCNC(=O)CSc1nc2scc(-c3ccccc3)c2c(=O)[nH]1 |  | inactive: -15.1%
COc1cccc(OC)c1C(=O)OCC(=O)N(c1ccccc1)C1CCCCC1 | active: 8.2 µM | 
CCOC(=O)c1cc(-c2ccc(C)cc2)n(CC(=O)Nc2ccc(OC)c(Cl)c2)c1C | active: 16.4 µM | 
COc1ccccc1C/C(N)=N/OC(=O)COc1ccc(C)cc1C | inconclusive [inhibitor, single point] | 
COc1ccccc1C(=O)NCCN1CCN(c2ccccc2)CC1 | inconclusive [inhibitor, full curve, poor fit] | 
C/C(CC(C)(C)c1ccccc1)=N\NS(=O)(=O)c1ccccc1 |  | inactive: -6.07%
O=C(Nc1ccc2c(c1)OCO2)N1CCN(c2ccc(F)cc2)CC1 | inconclusive [inhibitor, single point] | 
